# Screen size: about 310,000 compounds; about 2,200 (0.71%) showed an effect of 50% or more. The effect is printed as a negative number. The list shows a part of the results.
# Molecular target: human ether-à-go-go-related gene (hERG) potassium channel (human, UniProt Q12809)
# Assay: primary screen, population patch clamp on CHO cells stably expressing hERG
# Sequence of human ether-à-go-go-related gene (hERG) potassium channel (Q12809 whole entry, looked up): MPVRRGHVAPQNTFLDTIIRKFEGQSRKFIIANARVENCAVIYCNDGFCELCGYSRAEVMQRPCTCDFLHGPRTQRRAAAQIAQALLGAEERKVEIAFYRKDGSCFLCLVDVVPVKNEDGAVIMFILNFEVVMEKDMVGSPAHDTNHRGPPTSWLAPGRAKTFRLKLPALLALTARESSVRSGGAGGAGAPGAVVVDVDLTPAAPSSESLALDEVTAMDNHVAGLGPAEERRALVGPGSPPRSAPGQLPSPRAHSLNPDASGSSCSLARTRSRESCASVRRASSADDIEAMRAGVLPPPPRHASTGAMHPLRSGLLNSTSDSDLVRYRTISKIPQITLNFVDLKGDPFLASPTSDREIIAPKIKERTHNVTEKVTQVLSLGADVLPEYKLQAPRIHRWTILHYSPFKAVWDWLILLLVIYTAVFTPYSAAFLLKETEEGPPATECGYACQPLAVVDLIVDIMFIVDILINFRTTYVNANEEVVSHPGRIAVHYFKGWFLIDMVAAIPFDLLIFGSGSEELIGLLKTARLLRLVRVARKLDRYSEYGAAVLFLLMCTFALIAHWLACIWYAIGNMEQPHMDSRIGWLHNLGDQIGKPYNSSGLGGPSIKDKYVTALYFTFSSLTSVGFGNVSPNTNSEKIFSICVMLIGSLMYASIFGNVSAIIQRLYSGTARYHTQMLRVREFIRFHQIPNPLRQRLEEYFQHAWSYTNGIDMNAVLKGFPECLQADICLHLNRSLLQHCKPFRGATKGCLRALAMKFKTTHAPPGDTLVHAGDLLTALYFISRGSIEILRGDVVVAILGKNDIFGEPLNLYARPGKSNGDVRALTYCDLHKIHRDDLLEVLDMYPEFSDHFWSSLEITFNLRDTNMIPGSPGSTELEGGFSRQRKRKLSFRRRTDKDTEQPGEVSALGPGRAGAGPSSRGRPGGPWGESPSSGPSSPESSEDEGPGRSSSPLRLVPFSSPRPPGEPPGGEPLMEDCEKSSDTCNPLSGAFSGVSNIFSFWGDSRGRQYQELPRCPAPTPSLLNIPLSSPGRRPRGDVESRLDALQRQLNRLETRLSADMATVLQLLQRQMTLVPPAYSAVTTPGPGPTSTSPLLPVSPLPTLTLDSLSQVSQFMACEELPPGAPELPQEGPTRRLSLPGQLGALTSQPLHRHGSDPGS
row,Compound,"hERG current change (%, negative = inhibition) at 1uM"
1,Cn1cnnc1Sc1ccc(C(=O)OCC(=O)NCC(F)(F)F)cc1[N+](=O)[O-],1.05%
2,Cc1ccsc1/C=N/NC(=O)Cn1nc(C)c([N+](=O)[O-])c1C,10.4%
3,Cc1cc(C)cc(OCC(=O)Nc2ccc3c(c2)C(=O)c2ccccc2C3=O)c1,17.4%
4,CC(=O)Nc1ccc(SCC(=O)c2cc(C)n(C)c2C)cc1,8.09%
5,Cc1c(OCC(=O)N2C[C@H]3C[C@@H](C2)c2cccc(=O)n2C3)ccc2c3c(c(=O)oc12)CCCC3,2.19%
6,CCn1cc([N+](=O)[O-])nc1C,7.47%
7,CCC1=NNC(=O)C(CC(=O)Nc2ccccc2)c2cc(OC)c(OC)cc21 (stereo not shown),8.25%
8,CCOC(=O)Cc1csc(SC(C)C(=O)Nc2ccc(NC(C)=O)cc2)n1 (stereo not shown),4.01%
9,O=S(=O)(NCc1ccccn1)c1ccccc1,13.6%
10,CCOc1ccc(Br)cc1S(=O)(=O)NCc1ccncc1,12.1%
11,N#CCc1c(C#N)c(N)nc(N2CCN(c3ccc(F)cc3)CC2)c1C#N,-10.4%
12,S=C(Nc1ccccc1)Nn1cnnc1,0.218%
13,O=C1C2CC=CCC2C(=O)N1c1ccc(NCCc2ccc(O)cc2)c([N+](=O)[O-])c1 (stereo not shown),-0.0463%
14,Cc1ccc(-n2nc3c(=O)n(CCCC(=O)NCc4ccc(C)o4)nc(C)c3c2C)cc1,16.2%
15,N#Cc1ccccc1Sc1ccccc1C(=O)Nc1ccc(Br)cc1,19%
16,C=CCn1c(COc2ccc(F)cc2)nnc1SCC(=O)NC(=O)NCc1ccco1,-4.04%
17,O=C(NCc1ccc(OC(F)(F)F)cc1)C1CC2Cn3c(nc4ccccc43)C2N1Cc1ccccc1 (stereo not shown),-23.1%
18,C=CCn1c(O)c(C(C)=NC2CCN(Cc3ccccc3)CC2)c(=O)[nH]c1=O,-11.7%
19,CC(=O)N(CCN(C(C)=O)c1ccccc1)c1ccccc1,3.2%
20,CCCCNC(=O)CC1N=C2c3ccccc3N=C(SCC(=O)Nc3cccc(OC)c3)N2C1=O (stereo not shown),7.61%
21,CN(C)c1ccc(S(=O)(=O)NCC(=O)OCC(=O)Nc2cc(Cl)cc(Cl)c2)cc1[N+](=O)[O-],9.38%
22,O=C(NCN1C(=O)C2C3C=CC(C3)C2C1=O)Nc1nccs1 (stereo not shown),14.7%

row,Compound,"hERG current change (%, negative = inhibition) at 1uM"
1,Cc1c(NC(=O)c2cc(=O)[nH]c(=O)[nH]2)c(=O)n(-c2ccccc2)n1C,5.24%
2,Cl.O=C1CSC(c2ccc([N+](=O)[O-])cc2)N1CCN1CCCCC1 (stereo not shown),-44.8%
3,CC(C)(C)n1nc2c(c1NC(=O)c1ccc(Br)o1)CS(=O)C2 (stereo not shown),7.8%
4,O=C(Nc1cccnc1)C1(c2ccc(Cl)cc2)CCCC1,4.42%
5,COc1ccccc1C(=O)NCCc1nc2ccccc2n1C,5.68%
6,O=C(NC(Cc1c[nH]c2ccccc12)C(=O)N1CCOCC1)c1cccs1 (stereo not shown),11.2%
7,Cc1cc(C)c(C(=O)C(C)OC(=O)C2=COCCO2)cc1C (stereo not shown),5.17%
8,O=C(NN1CCOCC1)c1ccc(S(=O)(=O)N2CCCCC2)cc1,3.4%
9,Cc1ccc(S(=O)(=O)NCc2ccccn2)cc1C,7.3%
10,CN1CCN(Cc2c(O)c(Cl)cc3c(-c4ccccc4)cc(=O)oc23)CC1,11.4%
11,Cc1ccc2c(c1)c(C)cc[n+]2Cc1ccccc1.[Cl-],9.1%
12,Cc1cc2cc(CCNC(=O)c3ccc(S(=O)(=O)N4CCOCC4)cc3)c(=O)[nH]c2cc1C,14%
13,O=C(CNC(=O)c1ccc(=O)[nH]c1)Nc1ccc(F)c(F)c1,13.1%
14,Cc1ccc(S(=O)(=O)/N=c2\ccc(Cl)cn2C(F)F)cc1,7.56%
15,COc1ccc(NC(=O)CN(c2ccc(OC)cc2)S(=O)(=O)c2ccc(OC)c(OC)c2)cc1,7.76%
16,Cc1cc(C)cc(Oc2ccccc2/C=N\O)c1,-4.76%
17,CC1(C(=O)N2CCN(c3ccc([N+](=O)[O-])cc3)CC2)CC1(Cl)Cl (stereo not shown),-64.3%
18,CC/C(C)=N/Nc1nc2sc3c(c2c(=O)[nH]1)CC(C)(C)OC3,2.47%
19,COc1ccc(C2CC(c3cccs3)=Nc3ccccc3S2)cc1 (stereo not shown),-10.1%
20,CCOC(=O)C(=CNc1ccc(NC2=NCC(C)(C)S2)cc1)C(=O)OCC,4.88%
21,Cc1ccc(Cl)cc1NC(=O)COC(=O)C1CCCCC1,8.25%
22,COc1ccc(-n2cc(CNCCCn3ccnc3)c(-c3cccc(F)c3)n2)cc1,-6.96%

row,Compound,"hERG current change (%, negative = inhibition) at 1uM"
1,CN(C)CCCOC(=O)c1ccc(Cl)cc1,9.55%
2,C=CCN1C(=O)CS/C1=C(\C#N)S(=O)(=O)c1ccc(C)cc1,0.686%
3,COC(=O)CN1CCN(C(=O)c2ccc(F)cc2)c2ccccc2C1,10.2%
4,O=C(O)CCn1cc(/C=C2\SC(=S)NC2=O)c(-c2ccccc2)n1,19.7%
5,Cc1nn2c(=O)cc(CSc3nc4ccccc4[nH]3)nc2s1,13.7%
6,Cc1cc(C(=O)N2CCN(c3ncccn3)CC2)c(C)o1,18.6%
7,COc1ccc(CN2CCCCC2C)c(C)c1C (stereo not shown),2.37%
8,COc1cccc(CN2CC(C(=O)NCCOc3ccccc3)CCC2=O)c1 (stereo not shown),11.7%
9,CCN(CC)S(=O)(=O)c1ccc2[nH]cc(C(=O)NCCN3CCCCC3C)c(=O)c2c1 (stereo not shown),-9.38%
10,COc1ccc(C(=O)c2c3ccc(OC)cc3[n+]([O-])n2Cc2ccc(C(N)=O)cc2)cc1,3.99%
11,O=C(c1ccc(Cl)c(S(=O)(=O)N2CCc3ccccc3C2)c1)N1CCN(c2ccccc2)CC1,9.22%
12,CNc1ccc2nnc(C(F)(F)C(F)(F)C(F)(F)F)n2n1,11.6%
13,CC(C)NC(=O)NC(=O)CSc1nnc(-c2c[nH]c3ccccc23)o1,13.5%
14,O=C(COc1ncnc2ccccc12)Nc1cccc([N+](=O)[O-])c1,1.36%
15,Cc1cc(C)n(-c2nc(SCCN(C)C)c3c4c(sc3n2)COC(C)(C)C4)n1,-30.4%
16,O=C(CSc1nc2ccccc2o1)N1CCCC1,5.8%
17,COC(=O)COc1ccc(NC(=O)C2CCCO2)cc1 (stereo not shown),14.3%
18,C/C(Cn1cnc([N+](=O)[O-])n1)=N\NC(=O)c1cccnc1,8.82%
19,CCc1cc2cccc(C)c2nc1SCC(=O)NC1CCCC1,6.21%
20,COc1ccc(F)cc1CN1CCN(CC(=O)Nc2ccccc2C(=O)NC2CC2)CC1,-88.8%
21,CCOC(=O)c1cc(-c2ccccc2)sc1NC(=O)CC(C)C,1.47%
22,CCC1(C)N=c2c(c(=O)n(C)c(=O)n2C)=NO1 (stereo not shown),-10.7%

row,Compound,"hERG current change (%, negative = inhibition) at 1uM"
1,CCOc1ccc(S(=O)(=O)N(C)c2ccc(OCC(=O)Nc3ccc4[nH]c(=O)[nH]c4c3)cc2)cc1,15.3%
2,COC(=O)C1(S(=O)(=O)c2cccc3nsnc23)CC1,10.3%
3,CC(O)c1nc2ccccc2n1CC(=O)Nc1ccc(F)cc1Cl (stereo not shown),10.3%
4,CCC(C)N(CC(=O)Nc1cccc(C)c1C)C(=O)CCl (stereo not shown),-0.274%
5,Cc1ccc(NC(=O)N(Cc2nc3ccccc3c(=O)[nH]2)Cc2cccs2)cc1,5.74%
6,CCCCCC1C/C(=N\O)C=C(C)C1C(=O)OC (stereo not shown),13.4%
7,COC(=O)CNC(=O)C1CCN(S(=O)(=O)c2cnc[nH]2)CC1,9.77%
8,COC(=O)c1cc(Cc2ccc(N)c(C(=O)OC)c2)ccc1N,10.2%
9,CC(C)(C)OC(=O)N1CSC[C@H]1C(=O)NC[C@H](CC(=O)O)c1ccc(Cl)cc1,13.8%
10,Cc1ccc(S(=O)(=O)c2nnn3c2nc(N2CCC(C(N)=O)CC2)c2ccccc23)cc1C,6.73%
11,NC(=O)CSc1ncnc2c1cnn2Cc1ccccc1,9.35%
12,Cc1ccc(NC(=O)c2cccs2)cc1S(=O)(=O)Nc1cccc(Cl)c1,7.95%
13,Cc1cc(Cn2ccnc2)c(C)c([N+](=O)[O-])c1Cn1ccnc1,-4.61%
14,CCOc1ccc2nc(SC3CC(=O)N(c4ccc(OC)cc4OC)C3=O)sc2c1 (stereo not shown),6.38%
15,Cc1ccc(S(=O)(=O)N2CCN(S(=O)(=O)c3ccc(C)cc3)C3OCCOC32)cc1 (stereo not shown),4.18%
16,O=C1/C(=C/c2ccccc2)SC(=S)N1N1C(=O)C2CC2C1=O (stereo not shown),8.24%
17,COC(=O)c1cc2c(s1)-c1ccc(OC)cc1CC2,15.8%
18,CCOC(=O)/C(=N/Nc1ccccc1OC)N1CCCc2ccccc21,8.83%
19,O=C(COc1ccccc1)Nc1cccc(-c2ccc(N3CCOCC3)nn2)c1,7.22%
20,CN(C)c1nc(N(C)C)n(C(=O)c2ccc(F)cc2)n1,11.4%
21,O=[N+]([O-])c1ccccc1S(=O)(=O)Nc1ccn(Cc2c(F)cccc2Cl)n1,10.3%
22,Cc1c(C)n2c(SCC(=O)N3CCCCCC3)nnc2[nH]c1=O,19.6%
